Among all 310,000 compounds or so, about 2,200 (0.71%) showed an effect of 50% or more. The effect is printed as a negative number. This is one part of the list.
target: human ether-à-go-go-related gene (hERG) potassium channel (human, UniProt Q12809); test: primary screen, population patch clamp on CHO cells stably expressing hERG
Sequence (Q12809 whole entry, looked up): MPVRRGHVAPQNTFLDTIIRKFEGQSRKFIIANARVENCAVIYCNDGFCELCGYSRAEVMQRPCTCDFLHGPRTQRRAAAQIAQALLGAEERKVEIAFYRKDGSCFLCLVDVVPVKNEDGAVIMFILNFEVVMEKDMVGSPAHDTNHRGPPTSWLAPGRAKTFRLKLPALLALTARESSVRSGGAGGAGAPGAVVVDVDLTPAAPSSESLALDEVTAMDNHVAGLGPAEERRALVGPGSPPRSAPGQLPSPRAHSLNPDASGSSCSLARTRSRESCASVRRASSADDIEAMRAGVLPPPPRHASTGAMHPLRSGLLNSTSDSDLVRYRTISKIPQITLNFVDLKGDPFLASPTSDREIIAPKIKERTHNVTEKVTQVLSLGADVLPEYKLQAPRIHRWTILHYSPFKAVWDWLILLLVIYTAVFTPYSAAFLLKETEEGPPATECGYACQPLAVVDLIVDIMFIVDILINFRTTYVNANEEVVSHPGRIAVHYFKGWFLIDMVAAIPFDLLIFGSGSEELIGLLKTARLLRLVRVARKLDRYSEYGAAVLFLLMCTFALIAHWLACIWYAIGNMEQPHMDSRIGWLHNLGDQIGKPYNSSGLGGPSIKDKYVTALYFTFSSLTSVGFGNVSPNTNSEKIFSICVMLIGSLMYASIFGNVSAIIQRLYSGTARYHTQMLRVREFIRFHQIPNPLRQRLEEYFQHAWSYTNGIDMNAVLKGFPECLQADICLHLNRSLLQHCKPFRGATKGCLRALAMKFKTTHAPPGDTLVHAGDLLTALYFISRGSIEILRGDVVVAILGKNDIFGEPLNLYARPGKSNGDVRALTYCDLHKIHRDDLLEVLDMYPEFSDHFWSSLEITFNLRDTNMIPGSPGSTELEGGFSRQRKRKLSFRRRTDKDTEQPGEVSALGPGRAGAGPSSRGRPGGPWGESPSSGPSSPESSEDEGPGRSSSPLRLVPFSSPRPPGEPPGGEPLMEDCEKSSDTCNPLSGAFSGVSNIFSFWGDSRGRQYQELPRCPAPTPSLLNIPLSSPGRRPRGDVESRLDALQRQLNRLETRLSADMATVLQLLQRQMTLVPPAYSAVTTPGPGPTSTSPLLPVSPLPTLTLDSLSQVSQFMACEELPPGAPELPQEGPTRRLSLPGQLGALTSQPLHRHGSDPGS

Row | Compound | hERG current change (%, negative = inhibition) at 1uM [%]
1 | CC(C)N(C(C)C)S(=O)(=O)c1ccc(NC(=O)c2cnccn2)cc1 | 10.9
2 | CCc1cc2c(=O)c(-c3ccc4c(c3)OCCO4)c(C)oc2cc1OS(C)(=O)=O | 12.8
3 | O=C(CSc1ccc(-c2ccc(F)cc2)nn1)Nc1ccc2c(c1)OCCO2 | 1.47
4 | COc1cccc(NC(=O)c2ccccc2Oc2ccccc2)c1 | 12.6
5 | O=C(NC1CCCCC1)C(c1ccc(F)cc1)N(CCN1CCOCC1)C(=O)c1ccc(-c2ccccc2)[nH]1 (stereo not shown) | 15
6 | CCOc1ccc(-c2nc(N)ncc2-c2ccccc2OC)c(O)c1 | 1.66
7 | Cc1c(-c2nc(N)nc(Nc3ccc(F)cc3)n2)oc2ccccc12 | 9.46
8 | O=C(COC(=O)CCC(=O)c1cccs1)NC1CCCCC1 | 7.5
9 | Cc1cccc(C)c1OCC(O)CNC(C)C.Cl (stereo not shown) | 9.46
10 | COc1ccc(Br)cc1CNC(=O)c1ccc2c(c1)N(C)CCS2 | 0.856
11 | O=C(NCc1ccccc1)C1CCCN(S(=O)(=O)c2ccc(Br)cc2)C1 (stereo not shown) | 14.3
12 | O=C(NC1(C(F)(F)F)NC(=O)N(Cc2ccco2)C1=O)c1cccnc1 (stereo not shown) | 6.28
13 | CCOC(=O)CN1C=C(c2ccc3ccccc3n2)C(C[N+](=O)[O-])c2ccccc21 (stereo not shown) | 9.39
14 | C/C(=N/NC(=O)c1ccc2c(c1)OCO2)c1cccc(NC(=O)C(C)(C)C)c1 | 9.89
15 | CCC(CC)C(=O)Nc1cc([N+](=O)[O-])ccc1Cl | -5.45
16 | NC(=O)CC(NC(=O)Cc1ccc(Br)cc1)c1ccc(NCCc2ccc(F)cc2)c([N+](=O)[O-])c1 (stereo not shown) | 7.47
17 | COc1cc(CNc2ncn[nH]2)ccc1OCc1cccc(C)c1 | -0.15
18 | O=C(Nc1ccccc1)C1=C[C@@H](c2ccc(C(F)(F)F)cc2)C[C@@H](OCc2ccc(CO)cc2)O1 | 13.3
19 | O=C(O)CCCC(=O)Nc1ccccc1C(=O)O | -0.879
20 | CCOc1cc(-c2nc3cc(C)ccn3c2NCC2CCCO2)ccc1O (stereo not shown) | -47.3
21 | O=C(NCc1ccccc1)C(c1ccccc1F)N(CC1CCCO1)C(=O)c1ccccn1 (stereo not shown) | 12.1
22 | COc1ccc(O)c(/C=N/NC(=O)CCC(=O)Nc2cccc(C)c2)c1 | 8.42
23 | Cc1ccc(NC(=O)COc2cccc3ccc(C)nc23)c(Br)c1 | 11.4
24 | Nc1[nH]n2c(=O)c3c(nc2c1N=Nc1ccccc1)CCCC3 | -3.94
25 | CC(=O)c1sc2nsc(SCCN3CCOCC3)c2c1N | 11.3
26 | O=C(N/N=C/c1ccc(O)cc1)c1[nH]c2ccc(Br)cc2c1-c1ccccc1 | 19.6
27 | CC(C)[C@H](NS(=O)(=O)c1ccc(Cl)cc1)C(=O)OCC(=O)NCCN1C(=O)CSC1=O | 11.7
28 | COc1ccc(N=c2oc3ccccc3cc2C(=O)Nc2ccccn2)cc1OC | 18.6

Row | Compound | hERG current change (%, negative = inhibition) at 1uM [%]
29 | CC(=O)Nc1ccc(C(=O)c2ccccc2)cc1 | -2.24
30 | CC(C)Cc1nc2oc3c(Cl)ncnc3c2c2c1CCCC2 | -2.28
31 | O=C(NCC1(N2CCCCC2)CCCCC1)c1cccc(S(=O)(=O)Nc2ccc(F)cc2)c1 | -8.67
32 | CO/N=C/NC(=O)C1=NOC(CNc2ncc(C(F)(F)F)cc2Cl)C1 (stereo not shown) | -2.89
33 | c1coc(-c2nnc(SCc3nc4ccccc4[nH]3)o2)c1 | 2.6
34 | Fc1cccc(-c2nn[nH]n2)c1 | 6.51
35 | CN(C(=O)CS(=O)(=O)c1cn(CC(=O)N2CCCCC2)c2ccccc12)c1ccccc1 | 11.9
36 | COc1ccc(C(C)(C)C)cc1NC(=O)CCN1C(=O)C2CCCCC2C1=O (stereo not shown) | 25.2
37 | CCc1ccc(C(=O)NNC(=O)CN2C(=O)NC3(CCCC3)C2=O)cc1 | 12.5
38 | Cc1ccc(NC(=O)N2CCCC(c3ccccc3)C2)cc1 (stereo not shown) | 10.7
39 | Cc1ccccc1NS(=O)(=O)c1ccc(C(=O)NCC(c2ccco2)N(C)C)cc1 (stereo not shown) | 3.75
40 | C/C(=N\NC(=O)c1ccn(C)n1)c1ccc(NC(=O)C2CCC2)cc1 | 5.31
41 | COc1ccc2c(CCNC(=O)CN3C(=O)c4ccccc4C3=O)c[nH]c2c1 | 10
42 | Cl.O[Si](CCCN1CCCCC1)(c1ccc(F)cc1)C1CCCCC1 (stereo not shown) | -12.5
43 | CCOC(=O)C1Sc2ccccc2NC1=O (stereo not shown) | 10.4
44 | O=C(NC1CCCc2ccccc21)C1CCN(S(=O)(=O)c2cccc3nsnc23)CC1 (stereo not shown) | 3.86
45 | CCOC(=O)N1CCN(C(=O)CSc2nnc(-c3ccccc3OC)o2)CC1 | 3.24
46 | O=C(CC1C(=O)NCCN1Cc1ccc(F)c(F)c1)NCCn1cccn1 (stereo not shown) | 7.59
47 | CNC(=O)c1ccc(NC(=O)CCc2c(C)noc2C)cc1 | 15.8
48 | Cc1ccc(NC2CCCN(C(=O)c3c(C)noc3C)C2)cc1C (stereo not shown) | -1.97
49 | Cc1nc2sccn2c(=O)c1S(=O)(=O)Nc1ccc(N2CCN(C(=O)C(C)C)CC2)cc1 | 7.18
50 | CN1CC=C2C(C#N)=C(N)C(C#N)(C#N)[C@H](c3cccs3)[C@H]2C1 | 8.7
51 | Cc1ccc2c(c1)C1(OCCCO1)C(=O)N2 | 16.5
52 | CC(C)Oc1ccc(C(=O)Nc2nc3ccccc3[nH]2)cc1 | 14.8
53 | COc1ccc(N(C(=O)c2ccc(S(=O)(=O)N3CCCC3)cc2)C2C=CS(=O)(=O)C2)cc1 (stereo not shown) | -4.54
54 | CCOC(=O)c1ccc(NC(=O)c2nc[nH]c2C(=O)NCCCCCNC(=O)OC(C)(C)C)cc1 | 11.5
55 | CCOC(=O)c1sc2nc(SCC(=O)N(CC)CC)n(CCCN3CCCC3=O)c(=O)c2c1C | 1.77
